From PubChem BioAssay (NCI)
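Five concentrations, 48 hours, 96-well plates. GI50 marks 50% less growth. TGI is the concentration that stops growth completely.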

Test system: NCI-H322M lung
Experiment: NCI tumour cell line growth inhibition, 48 h

## O=C(CSc1nnc(-c2ccc(-c3nc4ccccc4[nH]3)cc2)o1)Nc1ccc(Cl)cc1
  GI50: 11.4 µM
  TGI: 25.6 µM
